# Reference: PubChem BioAssay AID1671193 (National Center for Advancing Translational Sciences (NCATS), 2021)
# Out of some 150,000 compounds screened, about 180 (0.12%) were called active. Inconclusive results, whose numbers are uncertain, are shown with a selection of clear calls. The call rests on the fitted dose curve; in most records, active means well fitted cell-killing curve with a large enough effect; inconclusive means small, poorly fitted or top-dose-only effect, or effect the other way; inactive means flat fitted curve, though single readings scatter. Potencies beside an inconclusive call are fits to weak or partial responses and may not hold up.
# Test: GF-AFC viability counterscreen for inhibitors of alpha-synuclein gene (SNCA) expression; further: nearly all actives have a fitted effect of over 30% in size;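 on activity change, negative = cytotoxicity: 0% = DMSO-treated cells and -100% = medium-only wells without cells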
# Details: HEK-293-SNCA-luc viability, GF-AFC fluorescence, 24 h; activity change, negative = cytotoxicity: at 57.1 µM (top of the series) unless noted
# Summary of the method: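 Cytotoxicity counterscreen: after 24 h compound treatment of genome-edited SNCA-luciferase HEK-293 cells, live-cell protease substrate GF-AFC read by fluorescence after 30 min; activity scaled between DMSO (0%) and medium-only (-100%), curves Hill-fitted.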
# Potency means the concentration at half of the fitted maximal effect; tags describe the fitted curve by direction and shape.
SMILES,Potency,"activity change, negative = cytotoxicity"
O=C(Nc1cccc2c(=O)cc(-c3nn[nH]n3)oc12)c1ccc(OCCCCc2ccccc2)cc1,"inconclusive: 34.1 µM [cytotoxic, single point]",
COc1ccc(-c2nc3scc(CCNC(=O)Cc4ccc(F)cc4)n3n2)cc1,"inconclusive: 10 µM [cytotoxic, partial curve]",
COC(=O)CCNC(=O)C1c2ccccc2C(=O)N(Cc2ccccc2)C12CCCC2 (centres undefined),"inconclusive: 12.6 µM [cytotoxic, partial curve, poor fit]",
COCCN1CC(CO)C2(CCN(C(=O)CCn3cc(C)cn3)CC2)C1 (centres undefined),,inactive: -4.33%
COc1ccc(-c2nnc(C[C@@H]3C[C@@H](C(C)C)[C@H](CN(C)CCC#N)C=C3C)o2)cc1,"inconclusive: 10 µM [cytotoxic, partial curve, poor fit]",
CCNc1ncc2nc(-c3cc(F)cc(F)c3)c(=O)n(CCc3ccccc3)c2n1,"inconclusive: 3.16 µM [rising, single point]",
COc1ccc(CN2CCOc3nc(-c4cc(F)cc(F)c4)ncc3C2=O)cc1,,inactive: -12.1% [at 87.6 µM]
COc1ccc(C(=O)N2CCCC(c3nn(-c4ccccc4)c(=O)[nH]3)C2)cc1 (centres undefined),"inconclusive: 10 µM [cytotoxic, partial curve, poor fit]",
O=C(NCC(=O)N1CCCCC1)c1cccc(-c2ccsc2)c1,,inactive: 4.3% [at 87.6 µM]
CCN1CCN(CCCNC(=O)c2ccc3c(c2)sc2nc(-c4ccc(OC)cc4)cn23)CC1,"inconclusive: 10 µM [cytotoxic, partial curve]",
Cc1ccc(-c2cc(N3CCCN(C(=O)CCc4ccccc4)CC3)n[nH]2)cc1C,"inconclusive: 20 µM [cytotoxic, single point]",
COCCC(=O)N1CCC(C2CCN(C(C)=O)CC2)C1 (centres undefined),,inactive: -7% [at 12.5 µM]
COc1cccc2c1C(=O)c1c(O)c3c(c(O)c1C2=O)C[C@@](O)(C(=O)CO)C[C@H]3O[C@H]1C[C@H](N)[C@H](O)[C@H](C)O1,"inconclusive: 13.6 µM [cytotoxic, partial curve]",
O=C(Cc1csc(-c2ccccc2)n1)N[C@H](c1ccccn1)C1CC(O)C1 (some centres undefined),,inactive: -0.902%
Cc1cccc(-n2nnnc2S(C)(=O)=O)c1,active: 22.4 µM,
COC[C@@H]1CN(Cc2cccc(OC)c2OC)C[C@H]1c1ccccn1,"inconclusive: 3.98 µM [cytotoxic, full curve]",
CC1(C)CC[C@]23CO[C@@]4(CCC5[C@@]6(C)CC[C@H](O[C@@H]7OC[C@H](O[C@@H]8O[C@H](CO)[C@@H](O)[C@H](O)[C@H]8O[C@@H]8OC[C@@H](O)[C@H](O)[C@H]8O)[C@H](O)[C@H]7O)[C@@](C)(CO)C6CC[C@@]5(C)[C@]4(C)CC2=O)[C@@H]3C1 (some centres undefined),"inconclusive: 8.98 µM [cytotoxic, single point]",
C[C@@]12O[C@@H](C[C@]1(O)CO)n1c3ccccc3c3c4c(c5c6ccccc6n2c5c31)CNC4=O,"inconclusive: 9.61 µM [cytotoxic, partial curve]",
COc1ccc(CN[C@@H]2C=C[C@@H](c3c(C)nn(-c4ccccc4)c3C)C2)cc1,"inconclusive: 44.7 µM [cytotoxic, partial curve, poor fit]",
O=C(NC1CCN(Cc2ccc(-c3ccsc3)cc2)C1)c1ccccc1 (centres undefined),"inconclusive: 2.24 µM [cytotoxic, full curve, poor fit]",

SMILES,Potency,"activity change, negative = cytotoxicity"
C[C@@H](NC(=O)C1CCCCC1)c1c(-c2ccc(F)cc2)noc1C(=O)O,,inactive: -0.461% [at 87.6 µM]
COc1ccc2oc(-c3ccc(C)c(NC(=O)Cc4ccc(Cl)cc4)c3)nc2c1,,inactive: -17.4%
COc1cccc(C(=O)N2CCc3nc(C)nc(-c4ccc(Cl)cc4)c3CC2)c1,,inactive: 0.937%
Cc1cccc(NC(=O)c2cc(S(=O)(=O)N3CCC4(CC3)OCCO4)ccc2F)c1,"inconclusive: 0.355 µM [rising, full curve, poor fit]",
CCc1ccc(C(=O)Nc2ccc3nn(-c4ccc(C)c(Cl)c4)nc3c2)cc1,"inconclusive: 20 µM [rising, partial curve, poor fit]",
CCOC(=O)CSc1nc2ccc(NC(=O)c3ccccc3)cc2s1,"inconclusive: 39.8 µM [rising, single point]",
CCN(Cc1ccccc1)C(=O)CN1C(=O)COc2ccc(S(=O)(=O)N3CCCCCC3)cc21,"inconclusive: 12.6 µM [cytotoxic, partial curve, poor fit]",
COc1ccc(CCC(=O)N2CCC[C@H]2c2nc(-c3ccccc3Cl)no2)cc1,"inconclusive: 14.1 µM [cytotoxic, partial curve, poor fit]",
COc1ccc(C(=O)NC2CC2)c(OC2CCN(Cc3cccc(SC)c3)CC2)c1,"inconclusive: 3.16 µM [cytotoxic, full curve]",
CCc1ccc(NC(=O)C(CC)n2c(=O)c(-c3ccccc3NC(C)=O)nc3ccccc32)cc1 (centres undefined),"inconclusive: 14.1 µM [cytotoxic, partial curve, poor fit]",
O=C(CSc1nc(-c2ccc(F)cc2)[nH]c1-c1ccc(F)cc1)Nc1ccc2c(c1)OCCO2,"inconclusive: 25.1 µM [cytotoxic, partial curve, poor fit]",
CCOc1ccccc1C(=O)NC1CCN(c2cc(-c3ccc(F)cc3)[nH]n2)C1 (centres undefined),,inactive: -25.1%
COc1ccc(NC(=O)C2CCCN(c3nnc(C)c4c(C)n(-c5ccccc5)nc34)C2)cc1Cl (centres undefined),"inconclusive: 10 µM [cytotoxic, partial curve]",
Cc1ccc2[nH]c(=O)c(C3=NN(C(=O)CCC(=O)O)C(c4ccc(Br)cc4)C3)c(-c3ccccc3)c2c1 (centres undefined),"inconclusive: 0.0053 µM [cytotoxic, full curve, poor fit]",
O=C(NCc1ccccc1)c1ccccc1OC1CN(Cc2cccc(C(F)(F)F)c2)C1,"inconclusive: 39.8 µM [cytotoxic, single point]",
CCCn1cnc2c1CN(S(C)(=O)=O)[C@H](C(=O)OC)C2,,inactive: -5.02% [at 87.6 µM]
Cc1cc(NS(=O)(=O)c2ccc3oc(=O)c4ncn(C)c4c3c2)ccc1Br,"inconclusive: 20 µM [cytotoxic, partial curve]",
COc1ccc(NC(=O)c2cc3c(N4CCSCC4)nc(C)cn3n2)cc1OC,,inactive: -1.06%
COCCn1c(=O)c(-c2cc(F)cc(F)c2)nc2cnc(N3CCN(C)CC3)nc21,"inconclusive: 22.4 µM [rising, partial curve]",
COCCNC(=O)CNC(=O)c1cccc(-c2ccc(C(F)(F)F)cc2)c1,,inactive: 2.02% [at 12.5 µM]

SMILES,Potency,"activity change, negative = cytotoxicity"
COc1cc2c(Oc3ccc4[nH]c(C)cc4c3F)ncnc2cc1OCCCN1CCCC1,"inconclusive: 33.6 µM [cytotoxic, single point]",
O=C(NCCc1ccc(Cl)cc1)c1ccc2c(c1)N(Cc1ccc(Cl)cc1)C(=O)CS2,"inconclusive: 28.2 µM [cytotoxic, single point]",
Cn1ccc(Nc2cc3c(cn2)CN(CCc2ccccc2)CCN3)n1,"inconclusive: 12.6 µM [cytotoxic, partial curve, poor fit]",
COc1cccc(-c2c(C(=O)NC3CC3)nc3sccn23)c1,"inconclusive: 2.82 µM [cytotoxic, full curve, poor fit]",
O=C(NCCc1ccccc1F)c1nc2sccn2c1-c1cccc(C(F)(F)F)c1,"inconclusive: 39.8 µM [cytotoxic, single point]",
Clc1ccccc1C1(c2ccnc(NC3CCC3)n2)CCNCC1,"inconclusive: 44.7 µM [cytotoxic, partial curve, poor fit]",
Cc1ccc(C2Cn3nnc(C(=O)N4CCC(C(=O)NCc5cccs5)CC4)c3CO2)cc1 (centres undefined),,inactive: -5.29%
CC(C)(C)c1nc2c3cc[nH]c(=O)c3c3cc(F)ccc3c2[nH]1,,inactive: 0.485%
COc1cccc(S(=O)(=O)N2CCCC(Cc3noc(-c4cnccn4)n3)C2)c1 (centres undefined),"inconclusive: 20 µM [cytotoxic, single point]",
Cc1noc(C)c1-c1cc2c(cc(C)n2CCN(C)C)c(-c2ccccc2O)n1,"inconclusive: 56.2 µM [cytotoxic, single point]",
Cc1cc(C)cc(OCC(=O)c2ccc3c(c2)N(CC(=O)N(C)Cc2ccccc2)C(=O)CO3)c1,"inconclusive: 25.1 µM [cytotoxic, single point]",
O=S(=O)(O)c1ccc2cc(N=Nc3cc(S(=O)(=O)O)c4cccnc4c3O)ccc2c1,"inconclusive: 7.52 µM [cytotoxic, partial curve, poor fit]",
Cc1nnc(N2C(=O)c3oc4ccccc4c(=O)c3C2c2ccc(Cl)cc2)s1 (centres undefined),,inactive: -4.77%
COC(=O)c1cccc(NC(=S)N[C@@H]2C=C[C@@H](c3c(C)nn(-c4ccc(F)cc4)c3C)C2)c1,"inconclusive: 35.5 µM [cytotoxic, single point]",
Cc1c(Cl)cccc1-c1ccc(/C=C(\C#N)c2nc3ccccc3[nH]2)o1,"inconclusive: 3.55 µM [rising, full curve, poor fit]",
COc1ccc(-c2c(C(=O)NCc3cccs3)nc3sccn23)cc1,"inconclusive: 39.8 µM [cytotoxic, single point]",
O=C1CCC2(C(=O)NCc3ccc4c(c3)OCO4)CCC=C2N1C1CCCC1 (centres undefined),"inconclusive: 7.08 µM [cytotoxic, partial curve, poor fit]",
Cc1cc(C)cc(C(=O)NC2CCCN(c3cc(-c4ccc(F)cc4)[nH]n3)C2)c1 (centres undefined),"inconclusive: 15.8 µM [cytotoxic, partial curve, poor fit]",
COc1ccc(OC)c(NC(=O)Cn2c(=O)cc(C)c3c(C)nn(-c4cccc(Cl)c4C)c32)c1,"inconclusive: 7.08 µM [rising, single point]",
